# In the BET-seq Pho4 binding data (Le et al. 2018):
# The other results are listed elsewhere or left out. These are noisy estimates, calculated here from bound and input reads.
# Target: T1, Pho4 (S. cerevisiae) (UniProt P07270)
# T1 sequence: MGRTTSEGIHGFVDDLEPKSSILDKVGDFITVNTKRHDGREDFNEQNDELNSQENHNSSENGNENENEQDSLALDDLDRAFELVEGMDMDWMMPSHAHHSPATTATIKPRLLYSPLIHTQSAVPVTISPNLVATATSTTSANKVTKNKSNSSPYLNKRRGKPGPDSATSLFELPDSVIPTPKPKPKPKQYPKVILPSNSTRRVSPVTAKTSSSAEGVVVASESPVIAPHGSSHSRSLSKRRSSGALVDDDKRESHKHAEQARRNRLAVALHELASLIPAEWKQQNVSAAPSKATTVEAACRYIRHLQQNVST
# Experiment: relative binding free energy (BET-seq); higher = weaker binding
# Settings: reference: library average
row,Sequence,relative binding free energy
1,TAAATCACGTGTCGGT,0.11 kcal/mol
2,TGTTCCACGTGTCAGG,0 kcal/mol
3,AATGTCACGTGATGGC,0.18 kcal/mol
4,GTACTCACGTGGTTTG,0.15 kcal/mol
5,GGAGGCACGTGGAGTC,0.07 kcal/mol
6,AGCTTCACGTGTGAGT,0.27 kcal/mol
7,TTAGCCACGTGGGGAG,-0.15 kcal/mol
8,CTGGGCACGTGGGATA,-0.17 kcal/mol
9,TTAAGCACGTGCATGT,-0.18 kcal/mol
10,ATGATCACGTGGGTAA,0.15 kcal/mol
11,GTCTGCACGTGTTGTC,0.02 kcal/mol
12,CTTGGCACGTGTGGAG,0.03 kcal/mol
13,TTGTTCACGTGAGATA,0.31 kcal/mol
14,CTGGCCACGTGGGGGG,-0.28 kcal/mol
15,TGAGTCACGTGTTCAG,0.14 kcal/mol
16,TGGAACACGTGATTTA,0.07 kcal/mol
17,AGAGTCACGTGCCTGG,0.14 kcal/mol
18,CGTGGCACGTGGTGGA,-0.24 kcal/mol
19,CGCTGCACGTGGTCGG,-0.05 kcal/mol
20,GATATCACGTGGCTGG,0.11 kcal/mol
21,TGATTCACGTGATAGT,0.26 kcal/mol
22,GAGCGCACGTGTGTTT,0.06 kcal/mol
23,GTGTTCACGTGGTTAG,0.25 kcal/mol

row,Sequence,relative binding free energy
1,GTATTCACGTGTTAGT,0.33 kcal/mol
2,TAAGTCACGTGGAGTT,0.07 kcal/mol
3,GAGCGCACGTGTAGGG,-0.09 kcal/mol
4,TTGAGCACGTGCTGTA,-0.12 kcal/mol
5,GGCGCCACGTGGTGTG,-0.13 kcal/mol
6,GGTTTCACGTGTTGCG,0.21 kcal/mol
7,AGGGTCACGTGTTGGT,0.24 kcal/mol
8,GGAGTCACGTGAGCTG,0.31 kcal/mol
9,AGATGCACGTGCGGGG,-0.08 kcal/mol
10,GAGGTCACGTGCGGGT,0.16 kcal/mol
11,AAGAGCACGTGTGTTA,-0.14 kcal/mol
12,CGTGCCACGTGTGTTA,-0.02 kcal/mol
13,ACGCACACGTGGGTGG,-0.03 kcal/mol
14,GTTGTCACGTGGATGG,0.18 kcal/mol
15,GGCGACACGTGTGAGT,0.24 kcal/mol
16,GGTATCACGTGGTATA,0.05 kcal/mol
17,GTTGGCACGTGCGGGA,-0.12 kcal/mol
18,TATGACACGTGAAGTG,0.3 kcal/mol
19,GAGAGCACGTGGTTAT,-0.08 kcal/mol
20,GAGTTCACGTGTTGTT,0.39 kcal/mol
21,AGGCTCACGTGATTGG,0.41 kcal/mol
22,TGCTACACGTGGAATG,0.24 kcal/mol
23,GATTACACGTGTCAGT,0.23 kcal/mol

row,Sequence,relative binding free energy
1,GGGGGCACGTGGTGTG,-0.17 kcal/mol
2,GGATGCACGTGGGACT,-0.08 kcal/mol
3,TCGGACACGTGGTGAG,0.02 kcal/mol
4,CGGTCCACGTGAGGGG,0.13 kcal/mol
5,GTGTTCACGTGCCGTT,0.27 kcal/mol
6,TGTAGCACGTGTATGT,-0.11 kcal/mol
7,TACTTCACGTGGTGGC,0.18 kcal/mol
8,TGAGTCACGTGGGTGA,0 kcal/mol
9,TGATTCACGTGTCTTA,0.37 kcal/mol
10,AGAGGCACGTGGGCGA,-0.31 kcal/mol
11,GTGCTCACGTGTAAGT,0.29 kcal/mol
12,CGTTGCACGTGGAGCG,0.07 kcal/mol
13,ATTCTCACGTGCGGGT,0.16 kcal/mol
14,ATGGGCACGTGCTTCG,-0.02 kcal/mol
15,CAGGTCACGTGCTGTT,0.04 kcal/mol
16,GTTAGCACGTGTAAGA,-0.02 kcal/mol
17,GTGAGCACGTGCGGTC,-0.05 kcal/mol
18,CGGGACACGTGGAAGT,0.1 kcal/mol
19,GGGTTCACGTGAGAAT,0.52 kcal/mol
20,TGGGGCACGTGTGGGC,0 kcal/mol
21,CATGTCACGTGTCTGT,0.23 kcal/mol
22,CGAAGCACGTGTGGGT,0.02 kcal/mol
23,GGGGGCACGTGTGACC,0.06 kcal/mol

row,Sequence,relative binding free energy
1,TGGGTCACGTGACGGA,0.06 kcal/mol
2,TGTGGCACGTGAACAT,0.12 kcal/mol
3,TGCTTCACGTGGGGAT,0.12 kcal/mol
4,GGTGGCACGTGTTTCG,-0.08 kcal/mol
5,GTGTGCACGTGAACTT,0.3 kcal/mol
6,TTATCCACGTGGGTTG,-0.04 kcal/mol
7,GCTAACACGTGTGGGT,0.12 kcal/mol
8,ACGTGCACGTGTGAGG,-0.11 kcal/mol
9,TAGATCACGTGTATGA,0.1 kcal/mol
10,GGTGGCACGTGGTTTA,-0.08 kcal/mol
11,TAGTACACGTGGTGTT,-0.01 kcal/mol
12,TGGGTCACGTGTTAAA,0.19 kcal/mol
13,ACAGTCACGTGTATTT,0.21 kcal/mol
14,GAGGACACGTGTTGTA,0.09 kcal/mol
15,GGATTCACGTGTGTCA,0.34 kcal/mol
16,GGACGCACGTGGTGTA,-0.09 kcal/mol
17,TGTTGCACGTGTATAA,0.01 kcal/mol
18,TATGCCACGTGGGGTC,-0.13 kcal/mol
19,GTGGACACGTGGTATG,-0.04 kcal/mol
20,TGTTGCACGTGAGACG,0.08 kcal/mol
21,TTTGTCACGTGGACCG,0.09 kcal/mol
22,CTATTCACGTGGATGT,0.27 kcal/mol
23,ATATTCACGTGGAGTT,0.25 kcal/mol

row,Sequence,relative binding free energy
1,GATTGCACGTGTATGG,0.1 kcal/mol
2,AATGTCACGTGCGAGT,0.08 kcal/mol
3,AGTTCCACGTGTGGGG,0.16 kcal/mol
4,CGGCGCACGTGGGTGG,-0.17 kcal/mol
5,ATTGGCACGTGTTATG,-0.05 kcal/mol
6,TTTGTCACGTGGCGGA,-0.01 kcal/mol
7,CGGTTCACGTGAGTTA,0.46 kcal/mol
8,GGCGTCACGTGGGGCG,-0.01 kcal/mol
9,AGGTCCACGTGAGGTA,0.26 kcal/mol
10,TAGTACACGTGCGTGT,-0.07 kcal/mol
11,CAGAACACGTGTGGTT,0.09 kcal/mol
12,GTGTACACGTGAGTTT,0.2 kcal/mol
13,TGAAACACGTGGGTTG,-0.11 kcal/mol
14,TTATGCACGTGTGGAG,0.08 kcal/mol
15,TGGTGCACGTGAGGTT,0.29 kcal/mol
16,TTTTCCACGTGGGGGG,-0.11 kcal/mol
17,GGAGTCACGTGGAACG,0.13 kcal/mol
18,TTTATCACGTGTCGCG,0.1 kcal/mol
19,TGAGGCACGTGAACTT,0.2 kcal/mol
20,GTATGCACGTGAGAGG,0.08 kcal/mol
21,GTCGGCACGTGGTAGG,-0.19 kcal/mol
22,CTCTTCACGTGTGGTG,0.14 kcal/mol
23,GTTGACACGTGTGAAA,0.19 kcal/mol
